# According to the BET-seq Pho4 binding data (Le et al. 2018):
# The list shows a part of the results. The energies were worked out here from pooled read counts, against the library average; single values are noisy.
# Target: T1, Pho4 (S. cerevisiae) (UniProt P07270)
# T1 sequence: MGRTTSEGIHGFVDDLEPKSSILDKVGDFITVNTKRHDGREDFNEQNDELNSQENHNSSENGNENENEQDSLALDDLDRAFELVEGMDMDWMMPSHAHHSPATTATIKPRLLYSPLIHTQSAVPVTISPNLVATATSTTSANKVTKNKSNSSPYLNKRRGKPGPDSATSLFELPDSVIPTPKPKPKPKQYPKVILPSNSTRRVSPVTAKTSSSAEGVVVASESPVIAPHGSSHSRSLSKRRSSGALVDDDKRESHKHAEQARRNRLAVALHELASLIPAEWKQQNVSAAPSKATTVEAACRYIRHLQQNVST
# Assay: relative binding free energy (BET-seq); higher = weaker binding
# Conditions: reference: library average
row,Sequence,relative binding free energy
1,CGATGCACGTGGGCGT,-0.12 kcal/mol
2,TAGGGCACGTGTGTGG,0 kcal/mol
3,GATGGCACGTGCGTGG,-0.14 kcal/mol
4,AGGATCACGTGAGTGG,0.38 kcal/mol
5,AGCTACACGTGTAGGG,0.14 kcal/mol
6,AAGGGCACGTGTGGCT,-0.05 kcal/mol
7,AGGTACACGTGTGATT,0.19 kcal/mol
8,ATGTACACGTGGCGTA,-0.09 kcal/mol
9,TCTGTCACGTGTCGGT,0.02 kcal/mol
10,GTTTGCACGTGGTGGA,0.02 kcal/mol
11,TGGATCACGTGGTTCT,0.26 kcal/mol
12,TAGAGCACGTGGTAGG,-0.21 kcal/mol
13,TAATGCACGTGTTGCG,-0.05 kcal/mol
14,TTTTTCACGTGTCGTG,0.27 kcal/mol
15,CTGTGCACGTGGTGGT,-0.11 kcal/mol
16,GAAATCACGTGCTGGT,0.11 kcal/mol
17,TGATTCACGTGTTGGC,0.28 kcal/mol
18,GTGGGCACGTGAGAAG,0.18 kcal/mol
19,ATTTGCACGTGGGTAG,-0.14 kcal/mol
20,ATGTACACGTGGAGAT,0.06 kcal/mol
21,TTACTCACGTGGCTGG,0.28 kcal/mol
22,AGATTCACGTGTGGTC,0.13 kcal/mol
23,GCGGGCACGTGGCTGT,-0.13 kcal/mol
24,GAGGTCACGTGGCTAG,0.19 kcal/mol
25,GTGTGCACGTGATATG,0.06 kcal/mol
26,TTGGACACGTGCGTGT,-0.08 kcal/mol

row,Sequence,relative binding free energy
1,ACTGACACGTGTTTTG,0.14 kcal/mol
2,GGGGTCACGTGCTCAG,0.07 kcal/mol
3,AGGGTCACGTGCGCAG,-0.04 kcal/mol
4,CAGGGCACGTGTGGGC,-0.08 kcal/mol
5,TGCGTCACGTGGTGAG,0.04 kcal/mol
6,TTCAGCACGTGGTGCT,-0.14 kcal/mol
7,TTTGTCACGTGTTCGG,0.13 kcal/mol
8,ATCTGCACGTGGGATT,-0.09 kcal/mol
9,ATTGGCACGTGAGTTA,0.11 kcal/mol
10,CGGTACACGTGATTGG,0.08 kcal/mol
11,TGCTTCACGTGTGATA,0.28 kcal/mol
12,ATCTGCACGTGAGTTT,0.14 kcal/mol
13,TTGGGCACGTGGCCGG,-0.27 kcal/mol
14,GGTAGCACGTGTTAGT,0.05 kcal/mol
15,GGTTACACGTGTAAAG,0.19 kcal/mol
16,AATTACACGTGGGGCG,-0.02 kcal/mol
17,GGAGTCACGTGTTCTG,0.13 kcal/mol
18,GGTAACACGTGTGTGC,0.12 kcal/mol
19,GGGGACACGTGAGGGG,0.17 kcal/mol
20,TTAGGCACGTGTAGGT,-0.04 kcal/mol
21,GGGTGCACGTGTAATA,0.17 kcal/mol
22,GTCATCACGTGGTAGA,0.24 kcal/mol
23,TATCACACGTGAGGTG,0.21 kcal/mol
24,AATTGCACGTGCTAGG,0.01 kcal/mol
25,GGTAGCACGTGTGCGT,0 kcal/mol
26,GGAATCACGTGTGGTC,0.38 kcal/mol

row,Sequence,relative binding free energy
1,TTTCGCACGTGTTGTA,-0.02 kcal/mol
2,TGTTTCACGTGGTTTT,0.19 kcal/mol
3,TGTAACACGTGTTGTC,-0.06 kcal/mol
4,TGGGTCACGTGCGGTA,0.1 kcal/mol
5,GTTTTCACGTGCTGGG,0.31 kcal/mol
6,CAAGTCACGTGGAGGG,0.02 kcal/mol
7,CTTTACACGTGTGGTT,0.27 kcal/mol
8,AGTGGCACGTGGCCTG,-0.15 kcal/mol
9,AGGTGCACGTGCCTGT,-0.11 kcal/mol
10,TGCGCCACGTGGTTTT,-0.12 kcal/mol
11,GGGAACACGTGGGTTG,-0.07 kcal/mol
12,ATCGTCACGTGTTAAT,0.07 kcal/mol
13,AAAGTCACGTGAAGGC,0.49 kcal/mol
14,CAATTCACGTGTATGG,0.15 kcal/mol
15,TTCGGCACGTGTTGTA,-0.01 kcal/mol
16,TGTGGCACGTGTAGCT,-0.06 kcal/mol
17,GATATCACGTGTGTGA,0.2 kcal/mol
18,CTCAGCACGTGGTGTG,-0.2 kcal/mol
19,GGTGGCACGTGGTAGG,-0.05 kcal/mol
20,TGTGACACGTGTTTGC,0.13 kcal/mol
21,ATTTTCACGTGAGGAA,0.36 kcal/mol
22,CAGGTCACGTGCTGGT,0 kcal/mol
23,GTAGGCACGTGTCGTA,-0.04 kcal/mol
24,ATGACCACGTGTAGGT,-0.02 kcal/mol
25,TAATGCACGTGAGAGG,0.17 kcal/mol
26,ATGGTCACGTGCTGCT,0.09 kcal/mol

row,Sequence,relative binding free energy
1,CATGGCACGTGTGTAG,0 kcal/mol
2,CATGTCACGTGCGTGT,-0.13 kcal/mol
3,ATTTACACGTGTAAGA,0.14 kcal/mol
4,TAGGACACGTGGTCGG,-0.05 kcal/mol
5,TTTATCACGTGAGTTT,0.37 kcal/mol
6,TGTAGCACGTGATAAT,0 kcal/mol
7,TATGTCACGTGGCGAT,0.14 kcal/mol
8,CGTAGCACGTGGGGAG,-0.25 kcal/mol
9,CTGTACACGTGGGTTA,0.03 kcal/mol
10,TCTTTCACGTGTTAGG,0.35 kcal/mol
11,AGCAGCACGTGAGTGT,0.2 kcal/mol
12,AGCTGCACGTGGGTAA,-0.2 kcal/mol
13,GGGGACACGTGCTGTG,-0.1 kcal/mol
14,TGTTTCACGTGACTGT,0.47 kcal/mol
15,GGCTACACGTGTGAGT,0.29 kcal/mol
16,GAGCACACGTGTGGGA,0.25 kcal/mol
17,ACGTGCACGTGGGTGT,-0.24 kcal/mol
18,TTGGACACGTGGGTAG,-0.15 kcal/mol
19,TGTAGCACGTGTTGAT,-0.03 kcal/mol
20,ATGGGCACGTGGAAGA,-0.1 kcal/mol
21,TTGGACACGTGTGGAG,0.08 kcal/mol
22,GGCGCCACGTGGTTGT,-0.16 kcal/mol
23,ATAACCACGTGGGGGT,-0.33 kcal/mol
24,ACTTGCACGTGGATTG,0.04 kcal/mol
25,TGCATCACGTGGAGTG,-0.03 kcal/mol
26,TAGCGCACGTGGAATG,-0.08 kcal/mol

row,Sequence,relative binding free energy
1,CGGTTCACGTGAGCTG,0.42 kcal/mol
2,GGGCGCACGTGTGTGT,-0.13 kcal/mol
3,AATATCACGTGTAGGG,0.11 kcal/mol
4,GGATACACGTGATTGG,0.23 kcal/mol
5,TGGTCCACGTGGGTCT,-0.1 kcal/mol
6,GGTACCACGTGGTGGT,-0.18 kcal/mol
7,TTGAACACGTGTGGGA,0.22 kcal/mol
8,ATTGGCACGTGATCTG,0.01 kcal/mol
9,CGTATCACGTGTGTCT,0.12 kcal/mol
10,TGAGACACGTGGCGGG,-0.06 kcal/mol
11,TTTTCCACGTGGTGAG,0.08 kcal/mol
12,TCATGCACGTGAGTGT,0.16 kcal/mol
13,TGGTGCACGTGGGTCG,-0.14 kcal/mol
14,GGGGGCACGTGGGTTG,-0.24 kcal/mol
15,GAGTTCACGTGTTGTA,0.33 kcal/mol
16,CGTGTCACGTGGTTAC,0.02 kcal/mol
17,TAAGTCACGTGTCATG,0 kcal/mol
18,TATGGCACGTGGTGAC,-0.08 kcal/mol
19,GGCGTCACGTGAGAGG,0.27 kcal/mol
20,AAGAGCACGTGAGGTG,0.09 kcal/mol
21,TGTTACACGTGAAACG,0.41 kcal/mol
22,AGTTTCACGTGCTTTT,0.13 kcal/mol
23,CAGGTCACGTGGTGAA,0.16 kcal/mol
24,ATGTACACGTGAGTAG,0.29 kcal/mol
25,GGGGGCACGTGTATGT,-0.05 kcal/mol
26,TTTCTCACGTGGCTGG,0.11 kcal/mol

row,Sequence,relative binding free energy
1,TTGTCCACGTGGGGAA,-0.03 kcal/mol
2,AGTTGCACGTGATTTC,0.07 kcal/mol
3,TGTAGCACGTGGATTA,-0.07 kcal/mol
4,TATTTCACGTGACGCG,0.38 kcal/mol
5,TGAGACACGTGTAGGG,0.07 kcal/mol
6,GTCAACACGTGGTTGG,-0.01 kcal/mol
7,TTATTCACGTGTAGCA,0.2 kcal/mol
8,TTTAACACGTGATCAG,0.22 kcal/mol
9,GTTCACACGTGCGTTG,0.06 kcal/mol
10,GAGGTCACGTGAGTTA,0.3 kcal/mol
11,GCTGACACGTGAGTTG,0.42 kcal/mol
12,TTGTTCACGTGCTGCA,0.28 kcal/mol
13,ATATTCACGTGTTAGG,0.16 kcal/mol
14,TAGGTCACGTGGTAAT,0.14 kcal/mol
15,TAAGGCACGTGTATGT,-0.01 kcal/mol
16,TAATACACGTGGTGCG,-0.03 kcal/mol
17,GGTATCACGTGCAATG,0.23 kcal/mol
18,TGTGCCACGTGATTGG,0.12 kcal/mol
19,CAAGGCACGTGCGGTG,-0.12 kcal/mol
20,AGTTTCACGTGAATAA,0.36 kcal/mol
21,TGTTACACGTGAGGAG,0.45 kcal/mol
22,ATGGTCACGTGGTCTG,0.09 kcal/mol
23,GTAGGCACGTGGAAAG,0.08 kcal/mol
24,AGGTTCACGTGAGCTT,0.31 kcal/mol
25,AGGGTCACGTGATGTC,0.14 kcal/mol
26,TTCAGCACGTGCAGGG,-0.07 kcal/mol

row,Sequence,relative binding free energy
1,GATGTCACGTGAAGCG,0.51 kcal/mol
2,ATTGACACGTGGTTTC,0.08 kcal/mol
3,ATTGTCACGTGCGTCG,-0.12 kcal/mol
4,AAGTTCACGTGGAAGA,0.27 kcal/mol
5,AGTAGCACGTGTAGTA,-0.19 kcal/mol
6,GTGAACACGTGATGAG,0.22 kcal/mol
7,TTGTCCACGTGAGCGG,0.19 kcal/mol
8,TGCAGCACGTGGAGAG,0.01 kcal/mol
9,GCGTGCACGTGGAATG,0.02 kcal/mol
10,GTGAGCACGTGTTAAG,0.14 kcal/mol
11,AGAGTCACGTGGCGAG,0.24 kcal/mol
12,TGTGTCACGTGGTTGT,0.07 kcal/mol
13,GAGGGCACGTGTTACG,-0.06 kcal/mol
14,GTAGTCACGTGAGGGA,0.31 kcal/mol
15,TCGTGCACGTGGAATT,0.12 kcal/mol
16,GGTTGCACGTGCCTGT,-0.09 kcal/mol
17,AAGTTCACGTGAAGTA,0.41 kcal/mol
18,GGTTGCACGTGAGACG,0.12 kcal/mol
19,TTAGCCACGTGGGTGC,-0.27 kcal/mol
20,AGCAGCACGTGTTGGG,0 kcal/mol
21,GTGGGCACGTGTGTGG,0.01 kcal/mol
22,AATTTCACGTGGCATT,0.14 kcal/mol
23,ATGTACACGTGACTGG,0.02 kcal/mol
24,TTTGGCACGTGGGAAG,-0.14 kcal/mol
25,GGTGCCACGTGTACGT,-0.02 kcal/mol
26,ATATACACGTGGTAGG,-0.07 kcal/mol

row,Sequence,relative binding free energy
1,GGGGGCACGTGGTCTA,-0.19 kcal/mol
2,TGGTACACGTGGCATA,-0.13 kcal/mol
3,TGCAGCACGTGGGTCT,-0.16 kcal/mol
4,GAGGGCACGTGATGCT,-0.09 kcal/mol
5,AGTGACACGTGTGAAT,0.17 kcal/mol
6,ACTAGCACGTGGCGTG,-0.13 kcal/mol
7,CGGGGCACGTGTCATT,0.06 kcal/mol
8,GAGAGCACGTGTTTTA,-0.04 kcal/mol
9,CTGTGCACGTGGAGAT,0.05 kcal/mol
10,GTGGGCACGTGGTATC,-0.08 kcal/mol
11,GCAGGCACGTGTTATT,0.12 kcal/mol
12,GAATTCACGTGGTTGA,0.15 kcal/mol
13,ATCGGCACGTGGGAAT,-0.12 kcal/mol
14,GAGGGCACGTGGGGAT,-0.08 kcal/mol
15,GGAGACACGTGGGCTA,-0.01 kcal/mol
16,AGGGTCACGTGGCCGG,-0.01 kcal/mol
17,TGGTACACGTGTCGTT,0 kcal/mol
18,TCGGGCACGTGGCGCT,-0.13 kcal/mol
19,GTTGGCACGTGTATTC,0.02 kcal/mol
20,AGAGTCACGTGAGGTA,0.16 kcal/mol
21,CGTCGCACGTGTATGT,-0.05 kcal/mol
22,TTGTTCACGTGGCATT,0.15 kcal/mol
23,GAATTCACGTGGAGTG,0.29 kcal/mol
24,TAGGGCACGTGAAAGG,0.17 kcal/mol
25,GATGACACGTGGGTAA,-0.14 kcal/mol
26,TATGGCACGTGGAATG,0.07 kcal/mol

row,Sequence,relative binding free energy
1,ATGGTCACGTGACGAT,0.18 kcal/mol
2,CGGGCCACGTGGGTGG,-0.2 kcal/mol
3,CGTGTCACGTGGGGTG,-0.07 kcal/mol
4,TTGAACACGTGTTAAT,0.02 kcal/mol
5,AGGATCACGTGATTGG,0.32 kcal/mol
6,GGTTTCACGTGGAGGT,0.35 kcal/mol
7,GTGTTCACGTGCTTTA,0.23 kcal/mol
8,GTTGTCACGTGCGGGT,0.05 kcal/mol
9,AGGATCACGTGTGATT,0.33 kcal/mol
10,CGAGGCACGTGTTCGG,-0.18 kcal/mol
11,TGCTACACGTGTAGTT,0.07 kcal/mol
12,ATTAACACGTGGGGGC,-0.27 kcal/mol
13,AGTTGCACGTGGACAT,0.04 kcal/mol
14,CTTAGCACGTGTTGCT,-0.02 kcal/mol
15,TTGAGCACGTGATATG,0.12 kcal/mol
16,TCGAGCACGTGAGTTA,0.18 kcal/mol
17,AACTGCACGTGTTGGG,0.03 kcal/mol
18,TTATTCACGTGAACGT,0.28 kcal/mol
19,AAAGTCACGTGTTAGT,0.08 kcal/mol
20,GTTTTCACGTGCATGG,0.28 kcal/mol
21,AGTGGCACGTGCTGAT,-0.18 kcal/mol
22,GTTAGCACGTGGGTGC,-0.06 kcal/mol
